# ± gives the standard deviation of the averaged measurements. Restriction of a single-cycle SIVsab GFP reporter by TRIM5α v1-loop variants in CRFK cells. Human variants: read share among cells still uninfected after two challenges over input, higher = gained restriction. Rhesus variants: share among infected cells over input, higher = lost restriction. Reporter dose not given per row. No active / inactive call per row; the paper calls a change when both replicates lie above its controls (mean + 2 SD of stop or wild-type variants, or the top frameshift score). Residues outside the varied loop are taken from Swiss-Prot. The paper reads the human single-substitution scores as noise; they and the rhesus combinations repeat poorly (rank correlation 0.3 to 0.4), indel scores repeat only for the top variants, rhesus substitutions well (0.9).
# System: SIVsab (simian immunodeficiency virus of sabaeus monkeys), single-cycle GFP reporter, in CRFK cells
# Test: enrichment among uninfected cells over input (fold); higher = stronger restriction
# Settings: library: human / rhesus combinations
# Experimental: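 Pools of CRFK cells expressing variants of the TRIM5α v1 loop were challenged with the single-cycle reporter, sorted by GFP and sequenced; mean of two replicates.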
row,Sequence,enrichment
1,"MASGILVNVKEEVTCPICLELLTQPLSLDCGHSFCQACLTANHKKSMLDKGESSCPVCRISYQPENIRPNRHVANIVEKLREVKLSPEGQKVDHCARHGEKLLLFCQEDGKVICWLCERSQEHRGHHTFLTEEVAREYQVKLQAALEMLRQKQQEAEELEADIREEKASWKTQIQYDKTNVLADFEQLRDILDWEESNELQNLEKEEEDILKSLTNSETEMVQQTQSLRELISDLEHRLQGSVMELLQGVDGVIKRTENVTLKKPETFPKNQRRVFRAPDLKGMLEVFRELTDVRRYWVDVTVAPNNISCAVISEDKRQVSSPKPQIIYQARGTRFTFQTLVNFNYCTGILGSQSITSGKHYWEVDVSKKTAWILGVCAGFQPDAMCNIEKNENYQPKYGYWVIGLEEGVKCSAFQDSSFHTPSVPFIVPLSVIICPDRVGVFLDYEACTVSFFNITNHGFLIYKFSHCSFSQPVFPYLNPRKCGVPMTLCSPSS [human TRIM5α, 330-340 = QARGTRFTFQTLV]",0.123 ± 0.088
2,"MASGILVNVKEEVTCPICLELLTQPLSLDCGHSFCQACLTANHKKSMLDKGESSCPVCRISYQPENIRPNRHVANIVEKLREVKLSPEGQKVDHCARHGEKLLLFCQEDGKVICWLCERSQEHRGHHTFLTEEVAREYQVKLQAALEMLRQKQQEAEELEADIREEKASWKTQIQYDKTNVLADFEQLRDILDWEESNELQNLEKEEEDILKSLTNSETEMVQQTQSLRELISDLEHRLQGSVMELLQGVDGVIKRTENVTLKKPETFPKNQRRVFRAPDLKGMLEVFRELTDVRRYWVDVTVAPNNISCAVISEDKRQVSSPKPQIIYQAPGTRFTFPTFVNFNYCTGILGSQSITSGKHYWEVDVSKKTAWILGVCAGFQPDAMCNIEKNENYQPKYGYWVIGLEEGVKCSAFQDSSFHTPSVPFIVPLSVIICPDRVGVFLDYEACTVSFFNITNHGFLIYKFSHCSFSQPVFPYLNPRKCGVPMTLCSPSS [human TRIM5α, 330-340 = QAPGTRFTFPTFV]",0.186 ± 0.21
3,"MASGILVNVKEEVTCPICLELLTQPLSLDCGHSFCQACLTANHKKSMLDKGESSCPVCRISYQPENIRPNRHVANIVEKLREVKLSPEGQKVDHCARHGEKLLLFCQEDGKVICWLCERSQEHRGHHTFLTEEVAREYQVKLQAALEMLRQKQQEAEELEADIREEKASWKTQIQYDKTNVLADFEQLRDILDWEESNELQNLEKEEEDILKSLTNSETEMVQQTQSLRELISDLEHRLQGSVMELLQGVDGVIKRTENVTLKKPETFPKNQRRVFRAPDLKGMLEVFRELTDVRRYWVDVTVAPNNISCAVISEDKRQVSSPKPQIIYGARGTLFPSLTNFNYCTGILGSQSITSGKHYWEVDVSKKTAWILGVCAGFQPDAMCNIEKNENYQPKYGYWVIGLEEGVKCSAFQDSSFHTPSVPFIVPLSVIICPDRVGVFLDYEACTVSFFNITNHGFLIYKFSHCSFSQPVFPYLNPRKCGVPMTLCSPSS [human TRIM5α, 330-340 = GARGTLFPSLT]",0.00365 ± 0.003
4,"MASGILVNVKEEVTCPICLELLTQPLSLDCGHSFCQACLTANHKKSMLDKGESSCPVCRISYQPENIRPNRHVANIVEKLREVKLSPEGQKVDHCARHGEKLLLFCQEDGKVICWLCERSQEHRGHHTFLTEEVAREYQVKLQAALEMLRQKQQEAEELEADIREEKASWKTQIQYDKTNVLADFEQLRDILDWEESNELQNLEKEEEDILKSLTNSETEMVQQTQSLRELISDLEHRLQGSVMELLQGVDGVIKRTENVTLKKPETFPKNQRRVFRAPDLKGMLEVFRELTDVRRYWVDVTVAPNNISCAVISEDKRQVSSPKPQIIYQARGTRFQSFVNFNYCTGILGSQSITSGKHYWEVDVSKKTAWILGVCAGFQPDAMCNIEKNENYQPKYGYWVIGLEEGVKCSAFQDSSFHTPSVPFIVPLSVIICPDRVGVFLDYEACTVSFFNITNHGFLIYKFSHCSFSQPVFPYLNPRKCGVPMTLCSPSS [human TRIM5α, 330-340 = QARGTRFQSFV]",0.00168 ± 0.0012
5,"MASGILVNVKEEVTCPICLELLTQPLSLDCGHSFCQACLTANHKKSMLDKGESSCPVCRISYQPENIRPNRHVANIVEKLREVKLSPEGQKVDHCARHGEKLLLFCQEDGKVICWLCERSQEHRGHHTFLTEEVAREYQVKLQAALEMLRQKQQEAEELEADIREEKASWKTQIQYDKTNVLADFEQLRDILDWEESNELQNLEKEEEDILKSLTNSETEMVQQTQSLRELISDLEHRLQGSVMELLQGVDGVIKRTENVTLKKPETFPKNQRRVFRAPDLKGMLEVFRELTDVRRYWVDVTVAPNNISCAVISEDKRQVSSPKPQIIYGARGTLFTFQSFTNFNYCTGILGSQSITSGKHYWEVDVSKKTAWILGVCAGFQPDAMCNIEKNENYQPKYGYWVIGLEEGVKCSAFQDSSFHTPSVPFIVPLSVIICPDRVGVFLDYEACTVSFFNITNHGFLIYKFSHCSFSQPVFPYLNPRKCGVPMTLCSPSS [human TRIM5α, 330-340 = GARGTLFTFQSFT]",0.137 ± 0.16
6,"MASGILVNVKEEVTCPICLELLTQPLSLDCGHSFCQACLTANHKKSMLDKGESSCPVCRISYQPENIRPNRHVANIVEKLREVKLSPEGQKVDHCARHGEKLLLFCQEDGKVICWLCERSQEHRGHHTFLTEEVAREYQVKLQAALEMLRQKQQEAEELEADIREEKASWKTQIQYDKTNVLADFEQLRDILDWEESNELQNLEKEEEDILKSLTNSETEMVQQTQSLRELISDLEHRLQGSVMELLQGVDGVIKRTENVTLKKPETFPKNQRRVFRAPDLKGMLEVFRELTDVRRYWVDVTVAPNNISCAVISEDKRQVSSPKPQIIYQAPGTLFTFPTLTNFNYCTGILGSQSITSGKHYWEVDVSKKTAWILGVCAGFQPDAMCNIEKNENYQPKYGYWVIGLEEGVKCSAFQDSSFHTPSVPFIVPLSVIICPDRVGVFLDYEACTVSFFNITNHGFLIYKFSHCSFSQPVFPYLNPRKCGVPMTLCSPSS [human TRIM5α, 330-340 = QAPGTLFTFPTLT]",25.1 ± 11

# Same assay, conditions: library: insertions and deletions
row,Sequence,enrichment
1,"MASGILVNVKEEVTCPICLELLTQPLSLDCGHSFCQACLTANHKKSMLDKGESSCPVCRISYQPENIRPNRHVANIVEKLREVKLSPEGQKVDHCARHGEKLLLFCQEDGKVICWLCERSQEHRGHHTFLTEEVAREYQVKLQAALEMLRQKQQEAEELEADIREEKASWKTQIQYDKTNVLADFEQLRDILDWEESNELQNLEKEEEDILKSLTNSETEMVQQTQSLRELISDLEHRLQGSVMELLQGVDGVIKRTENVTLKKPETFPKNQRRVFRAPDLKGMLEVFRELTDVRRYWVDVTVAPNNISCAVISEDKRQVSSPKPQIIYGARGFNYCTGILGSQSITSGKHYWEVDVSKKTAWILGVCAGFQPDAMCNIEKNENYQPKYGYWVIGLEEGVKCSAFQDSSFHTPSVPFIVPLSVIICPDRVGVFLDYEACTVSFFNITNHGFLIYKFSHCSFSQPVFPYLNPRKCGVPMTLCSPSS [human TRIM5α, 8-codon deletion at 334]",1.36 ± 0.77
2,"MASGILVNVKEEVTCPICLELLTQPLSLDCGHSFCQACLTANHKKSMLDKGESSCPVCRISYQPENIRPNRHVANIVEKLREVKLSPEGQKVDHCARHGEKLLLFCQEDGKVICWLCERSQEHRGHHTFLTEEVAREYQVKLQAALEMLRQKQQEAEELEADIREEKASWKTQIQYDKTNVLADFEQLRDILDWEESNELQNLEKEEEDILKSLTNSETEMVQQTQSLRELISDLEHRLQGSVMELLQGVDGVIKRTENVTLKKPETFPKNQRRVFRAPDLKGMLEVFRELTDVRRYWVDVTVAPNNISCAVISEDKRQVSSPKPQIIYGARGTRYQTILGSQSITSGKHYWEVDVSKKTAWILGVCAGFQPDAMCNIEKNENYQPKYGYWVIGLEEGVKCSAFQDSSFHTPSVPFIVPLSVIICPDRVGVFLDYEACTVSFFNITNHGFLIYKFSHCSFSQPVFPYLNPRKCGVPMTLCSPSS [human TRIM5α, 9-codon deletion at 339]",3.23 ± 2.9
3,"MASGILVNVKEEVTCPICLELLTQPLSLDCGHSFCQACLTANHKKSMLDKGESSCPVCRISYQPENIRPNRHVANIVEKLREVKLSPEGQKVDHCARHGEKLLLFCQEDGKVICWLCERSQEHRGHHTFLTEEVAREYQVKLQAALEMLRQKQQEAEELEADIREEKASWKTQIQYDKTNVLADFEQLRDILDWEESNELQNLEKEEEDILKSLTNSETEMVQQTQSLRELISDLEHRLQGSVMELLQGVDGVIKRTENVTLKKPETFPKNQRRVFRAPDLKGMLEVFRELTDVRRYWVDVTVAPNNISCAVISEDKRQVSSPKPQIIYGARGTQIIYGARGTRYQTFVNFNYCTGILGSQSITSGKHYWEVDVSKKTAWILGVCAGFQPDAMCNIEKNENYQPKYGYWVIGLEEGVKCSAFQDSSFHTPSVPFIVPLSVIICPDRVGVFLDYEACTVSFFNITNHGFLIYKFSHCSFSQPVFPYLNPRKCGVPMTLCSPSS [human TRIM5α, 9-codon duplication at 326]",0.39 ± 0.32
4,"MASGILVNVKEEVTCPICLELLTQPLSLDCGHSFCQACLTANHKKSMLDKGESSCPVCRISYQPENIRPNRHVANIVEKLREVKLSPEGQKVDHCARHGEKLLLFCQEDGKVICWLCERSQEHRGHHTFLTEEVAREYQVKLQAALEMLRQKQQEAEELEADIREEKASWKTQIQYDKTNVLADFEQLRDILDWEESNELQNLEKEEEDILKSLTNSETEMVQQTQSLRELISDLEHRLQGSVMELLQGVDGVIKRTENVTLKKPETFPKNQRRVFRAPDLKGMLEVFRELTDVRRYWVDVTVAPNNISCAVISEDKRQVSSPKPQIIYGARGNYCTGILGSQSITSGKHYWEVDVSKKTAWILGVCAGFQPDAMCNIEKNENYQPKYGYWVIGLEEGVKCSAFQDSSFHTPSVPFIVPLSVIICPDRVGVFLDYEACTVSFFNITNHGFLIYKFSHCSFSQPVFPYLNPRKCGVPMTLCSPSS [human TRIM5α, 9-codon deletion at 334]",1.63 ± 1.7
5,"MASGILVNVKEEVTCPICLELLTQPLSLDCGHSFCQACLTANHKKSMLDKGESSCPVCRISYQPENIRPNRHVANIVEKLREVKLSPEGQKVDHCARHGEKLLLFCQEDGKVICWLCERSQEHRGHHTFLTEEVAREYQVKLQAALEMLRQKQQEAEELEADIREEKASWKTQIQYDKTNVLADFEQLRDILDWEESNELQNLEKEEEDILKSLTNSETEMVQQTQSLRELISDLEHRLQGSVMELLQGVDGVIKRTENVTLKKPETFPKNQRRVFRAPDLKGMLEVFRELTDVRRYWVDVTVAPNNISCAVISEDKRQVSSPKPQIIYGAPQIIYGARGTRYQTFVNFNYCTGILGSQSITSGKHYWEVDVSKKTAWILGVCAGFQPDAMCNIEKNENYQPKYGYWVIGLEEGVKCSAFQDSSFHTPSVPFIVPLSVIICPDRVGVFLDYEACTVSFFNITNHGFLIYKFSHCSFSQPVFPYLNPRKCGVPMTLCSPSS [human TRIM5α, 7-codon duplication at 325]",0.0915 ± 0.12
6,"MASGILVNVKEEVTCPICLELLTQPLSLDCGHSFCQACLTANHKKSMLDKGESSCPVCRISYQPENIRPNRHVANIVEKLREVKLSPEGQKVDHCARHGEKLLLFCQEDGKVICWLCERSQEHRGHHTFLTEEVAREYQVKLQAALEMLRQKQQEAEELEADIREEKASWKTQIQYDKTNVLADFEQLRDILDWEESNELQNLEKEEEDILKSLTNSETEMVQQTQSLRELISDLEHRLQGSVMELLQGVDGVIKRTENVTLKKPETFPKNQRRVFRAPDLKGMLEVFRELTDVRRYWVDVTVAPNNISCAVISEDKRQVSSPKPQIIYGARGTRYQCTGILGSQSITSGKHYWEVDVSKKTAWILGVCAGFQPDAMCNIEKNENYQPKYGYWVIGLEEGVKCSAFQDSSFHTPSVPFIVPLSVIICPDRVGVFLDYEACTVSFFNITNHGFLIYKFSHCSFSQPVFPYLNPRKCGVPMTLCSPSS [human TRIM5α, 7-codon deletion at 338]",1.42 ± 0.95

# Reference: the supplement of paper PMC12230231
